Experimental data published in PubChem BioAssay AID686979 (National Center for Advancing Translational Sciences (NCATS), 2013).
The campaign covered roughly 420,000 compounds. About 50,000 (12%) were called active. Inconclusive means that the source gave no clear call. Such entries were picked first, then a sample of the others. Calls follow the shape of the dose curve; as a rule, active = well fitted inhibition curve with a large enough effect; inconclusive = small, poorly fitted or top-dose-only effect; inactive = flat fitted curve, though single readings scatter. No potency is given beside an inconclusive call; the fits are too rough.

Assay: qHTS for Inhibitors of human tyrosyl-DNA phosphodiesterase 1 (TDP1): qHTS in cells in presence of CPT; also: nearly all actives have a fitted effect of over 55% in size
Details: chicken DT40 Tdp1-/-;hTDP1 cells + 20 nM CPT, ATP luminescence, 48 h; activity change, negative = growth inhibition: at 46.2 µM (top of the series) unless noted
Outline: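 Chicken DT40 Tdp1-/- cells complemented with human TDP1, 400 cells/well, exposed to compounds plus 20 nM camptothecin for at least 48 h at 37 C; viability read as ATP content by CellTiter-Glo luminescence.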
% is scaled to controls: 0 for no effect and ±100 for the full control effect; potency is read from the fitted curve at half-maximal effect; tags tell the direction and shape of the fitted curve.

SMILES	Potency	activity change, negative = growth inhibition
O=C1C(=Cc2ccccc2O)SC(=S)N1CCCN1CCOCC1	inconclusive [inhibitor, single point]	
CC(=O)N1CCc2cc(CNS(=O)(=O)c3ccc(Br)s3)ccc21	inconclusive [inhibitor, single point]	
O=C(c1ccco1)N1CCN(C2c3ccccc3-c3ccccc32)CC1	inconclusive [inhibitor, single point]	
O=C(NC1CCCCC1)C(c1ccccc1)N(C(=O)c1cccs1)c1ccc2c(c1)OCO2 (stereo unspecified)	inconclusive [inhibitor, partial curve]	
O=C(Nc1ccc(F)cc1)c1cc(-c2ccccn2)nc2c(Cl)cccc12	inconclusive [inhibitor, single point]	
O=C(CSC1=Nc2ccccc2N=C(c2ccc(F)cc2)C1)NCc1ccccc1	inconclusive [inhibitor, single point]	
Cc1ccc(NC(=O)COc2ccc(/C=N/NC(=O)CSCc3ccccc3)cc2)cc1	inconclusive [inhibitor, single point]	
CC(C)NS(=O)(=O)c1ccc(OCC(=O)NCc2ccc3c(c2)OCO3)c(Cl)c1		inconclusive: -30.6% [inhibitor]
C[C@H]1CN([C@@H](C)CO)C(=O)CCCn2nncc2CO[C@H]1CN(C)C(=O)Nc1ccnc(N2CCOCC2)c1		inactive: -28.4%
NC(=O)COC(=O)c1cc(Cl)cc(Cl)c1N		inactive: 5.54%
CCCc1cc(=O)[nH]c(=S)[nH]1	inconclusive [inhibitor, single point]	
O=C(c1nn(Cc2ccccc2)c(=O)c2ccccc12)N1CCc2ccccc2C1		inactive: -27.3%
O=C(NCCc1ccc(Cl)cc1)c1ccc(Cn2c(=O)c3cccn3c3cccnc32)cc1	inconclusive [inhibitor, single point]	
O=S(=O)(c1ccccc1Cl)N1CCCC(c2nc(-c3cccnc3)no2)C1 (stereo unspecified)		inactive: -12.2%
CC1CCCN(Cc2cn3c(-c4cccc(Br)c4)nnc3s2)C1 (stereo unspecified)	active: 23.1 µM	
CCOc1ccc(C(=O)NCCc2sc3nc(-c4ccc(Cl)cc4)nn3c2C)cc1OCC	inconclusive [inhibitor, partial curve]	
CC1CCN(S(=O)(=O)c2ccc(NC(=O)CN3C(=O)NC(C)(c4ccccc4)C3=O)cc2)CC1 (stereo unspecified)	inconclusive [inhibitor, single point]	
O=C/C=C/c1c(-c2ccccc2)cc2oc3ccccc3cc1-2	inconclusive [inhibitor, single point]	
OCCNc1nc2ccccc2n1-c1ccccc1	inconclusive [inhibitor, single point]	
CCc1c(-c2cccc(Cl)c2)ncn1Cc1cccc(-c2ccccc2)c1	inconclusive [inhibitor, single point]	
COc1ccc(/C=N/NC(=O)c2cccnc2)cc1COc1ccc([N+](=O)[O-])c(C)c1	active: 3.66 µM	
Cc1ccccc1C(=O)NCc1nc2cccnc2n1Cc1ccccc1	inconclusive [inhibitor, single point]	
COc1cccc(CNC(=O)c2nn(-c3ccccc3Cl)nc2CO)c1	inconclusive [inhibitor, single point]	

SMILES	Potency	activity change, negative = growth inhibition
CCCCc1nc2cc(C(=O)N3CCN(c4cnccn4)CC3)ccc2o1		inactive: -12.4%
O=C(NNS(=O)(=O)c1ccccc1)c1cnn(-c2ccccc2)c1-n1cccc1	active: 8.2 µM	
CC(C(=O)Nc1cc(C(F)(F)F)ccc1Cl)n1nnc2sc3c(c2c1=O)CCCC3 (stereo unspecified)	active: 23.1 µM	
O=c1cc(/C=C/c2ccccc2)oc2c1ccc1ccccc12	inconclusive [inhibitor, single point]	
CCCC(=O)C1=C(O)C(C(=O)OC)C(C)(C)CC1=Nc1cccc2ccccc12 (stereo unspecified)	inconclusive [inhibitor, single point]	
COC(=O)C(C)NC(=O)C12CC3CC(C1)CC(c1ccc(C)cc1)(C3)C2 (stereo unspecified)	inconclusive [inhibitor, single point]	
CCn1c(SCC(=O)OC2CCCCC2)nc2ccccc2c1=O		inactive: 0.452%
O=C(NCc1ccccc1)c1ccc(C(=O)NCc2ccccc2)cc1		inactive: -3.96%
Cc1ncc(CC(=O)n2cc(C(=O)c3cc(F)ccc3O)cn2)s1	inconclusive [inhibitor, single point]	
O=C(O)c1cccc(S(=O)(=O)Nc2ccccc2C(=O)NCCc2ccccc2)c1		inactive: -3.05%
O=c1[nH]c2ccc(NCc3ccccc3OCc3ccc(Cl)cc3)cc2[nH]1	active: 23.1 µM	
Cc1nc2cncnc2n(Cc2ccc(F)cc2)c1=O		inactive: 1.78%
Cc1cccc(NC(=O)CC2SC(=NC3CCCCC3)NC2=O)c1 (stereo unspecified)	inconclusive [inhibitor, single point]	
Cc1ccc(-n2ncc3c(N4CCC(C(N)=O)CC4)ncnc32)c(C)c1	inconclusive [inhibitor, single point]	
Cc1ccc(F)cc1NC(=O)CN1C(=O)NC2(CCCc3ccccc32)C1=O (stereo unspecified)		inactive: -5.56%
O=C(c1cccs1)N1CCN(c2nc3c(F)cc(F)cc3s2)CC1	inconclusive [inhibitor, single point]	
Cc1ccc(S(=O)(=O)N2CCCN(Cc3nc4ccccc4c(=O)[nH]3)CC2)cc1	inconclusive [inhibitor, single point]	
COC(=O)c1cccc(NC(=O)Cc2ccsc2)c1		inactive: -10.2%
O=C(CCc1nnc(-c2ccc3c(c2)OCO3)o1)NC(c1cccnc1)C(F)(F)F (stereo unspecified)		inactive: -28.4%
Cc1ccc(-c2csc(=Nc3ccccc3)n2Cc2ccc3c(c2)OCO3)cc1C	inconclusive [inhibitor, partial curve]	
COc1ccc(F)cc1-c1cc(C(=O)NCc2ccccc2)[nH]n1		inactive: -22.4%
CCCn1c(C(O)c2cc(OC)c(OC)c(OC)c2)nc2ccccc21 (stereo unspecified)	inconclusive [inhibitor, single point]	
Cn1cccc1/C=C(/C#N)C(N)=S		inactive: -5.09%
